What is called Kd is a measure of binding affinity in units of concentration.

Our source for the Kd values is patent publication EP4759829A1 (The University of Tokyo, dated 2025).

Substitutions are numbered along the chain they refer to.

This test concerns the target T1, human HVEM extracellular domain recombinant protein (Sino Biological Japan Inc. 10334-H08H) (human, UniProt Q92956 39-202).
T1 construct: extracellular domain; Bought protein
T1 sequence (looked up): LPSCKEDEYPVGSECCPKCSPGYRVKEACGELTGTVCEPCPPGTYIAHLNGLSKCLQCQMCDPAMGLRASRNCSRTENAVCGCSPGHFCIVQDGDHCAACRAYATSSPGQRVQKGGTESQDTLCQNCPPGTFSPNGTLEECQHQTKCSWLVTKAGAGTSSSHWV
Briefly: SPR (BIAcore T200), antibody captured by anti-human IgG on CM5 chip, HVEM extracellular domain as analyte.

B1: humanized anti-human HVEM antibody (HV80) (Fc fusion)
chain: EVQLVESGGGLVQPGGSLRLSCAASGSIGSIHRWDWYRLCPGKQREWVATLNSEGGPTYADSVEGRFTISRDNSKNMVYLQMNSLRPEDTAVYRCSARTVPFEYWGQGTLVTVSSGPP[sequence of human IgG4 Fc omitted]
notes: also called humanized VHH-3_hIgG4Fc
Regarding B1, the Kd worked out at 102 nM.

B2: alpaca-human chimeric anti-human HVEM antibody (VHH-3_hIgG4Fc) (Fc fusion)
chain: B1 chain with E1Q, L11S, S74A, R86K, Q107R, L110Q
In the case of B2, the Kd amounted to 67 nM.
